The list shows a part of the results.
Tested on: T1, C. trachomatis L2/434/Bu expressing GFP (CTL2-GFP)
T1 construct: L2/434/Bu GFP intracellular growth in HeLa cells
Design: species or system HeLa; C. trachomatis total inclusion area by high-content imaging, normalised to DMSO
Conditions: total inclusion area; 28.5 h, 10 µM; inhibitor
In short: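 Host cell viability was gauged from Hoechst-stained nuclei counts, while chlamydial growth was taken from total inclusion area and inclusion number per well. Cells were fixed and imaged by high-content microscopy once bulk GFP and resorufin fluorescence had been measured.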

| SMILES | % of control remaining |
| --- | --- |
| COc1cc(CNc2cc(-c3ccc(F)c(Cl)c3)nc3ccnn23)cc(OC)c1OC [CBK037209] | 67.0268 |
| Cc1cc([N+](=O)[O-])nn1CCCC(=O)Nc1cccc(O)c1 [CBK268747] | 92.5348 |
| Cc1cc(C[C@@H]2COC[C@H]2NCc2ccc(Cl)c(Cl)c2)on1 [CBK285400] | 102.517 |
| O=C(O)c1cccc(S(=O)(=O)Nc2ccccc2C(=O)NCc2ccccc2)c1 [CBK296697] | 106.934 |
| CCCN1CCCC(c2ccccc2O)C1 (stereo not shown) [CBK024365G] | 23.6079 |
| Cc1cc(C)n2ncc(C(=O)N3CCCCC3c3ccccn3)c2n1 (stereo not shown) [CBK307257] | 32.9689 |
| CCCc1ccc(S(=O)(=O)Nc2nc(-c3cccc([N+](=O)[O-])c3)cs2)cc1 [CBK000987] | 89.3067 |
| Cc1ccc(C(Cn2cncc2-c2cn(C)nc2C)N(C)C)cc1 (stereo not shown) [CBK281896] | 129.356 |
| Cc1ncc2c(n1)CCCC2NC(=O)c1ccccc1Cn1cncn1 (stereo not shown) [CBK306381] | 88.1725 |
| NCCCOc1cc(N2CCCC2)ncn1 [CBK115285] | 105.474 |
| CC1CCc2c(sc(NC(=O)c3nc4ncccn4n3)c2C(N)=O)C1 (stereo not shown) [CBK267631] | 104.69 |
| Cc1cc(C)cc(Oc2nccn3c(=O)[nH]nc23)c1 [CBK288451] | 118.807 |
| CC(=O)N[C@@H](Cc1c[nH]cn1)C(=O)N1CC[C@H]2NC(=O)[C@H](Cc3ccccc3)NC(=O)C3(C/C=C/C[C@H]2C1)CCOCC3 [CBK292206] | 101.996 |
| c1ccc(CC2CCN(CCc3c[nH]c4ccccc34)CC2)cc1 [CBK126385] | 112.82 |
| CC(C)Cn1c(=O)c(C(=O)Nc2cccc(Cl)c2)c(O)c2ccccc21 [CBK159967] | 144.022 |
| Cc1c(Cc2ccccc2)sc(NC(=O)c2cccnc2)c1C(N)=O [CBK269851] | 86.593 |
| CC(C)(C)C1CCC(OC(=O)Cn2nnc3ccccc3c2=O)CC1 (stereo not shown) [CBK306408] | 50.0729 |
| NC(=O)C1(N2CCCCC2)CCN(Cc2nc(O)c3ccccc3n2)CC1 [CBK265896] | 98.7851 |
| Nc1ncn(Cc2ccccc2)c2nc(SCc3ccccc3)nc1-2 [CBK025744] | 118.195 |
| COc1ccc(C)cc1NC(=O)N1CCC2(CC1)CC(=O)c1ccc(C)cc1O2 [CBK166520] | 80.6193 |
| N#CCCCN1CCC(Oc2nccnc2OCc2cccc(OCc3ccccc3)c2)CC1 [CBK161572] | 74.0748 |
| CCCS(=O)(=O)N1CCCC(Cc2ccc(F)cc2F)(C(=O)OCC)C1 (stereo not shown) [CBK307221] | 80.3793 |
| Cc1cc(-c2cc(=O)n(Cc3ccc(F)cc3)nc2C2CC2)on1 [CBK284364] | 61.4256 |
| COCc1cn([C@H]2CO[C@H]3[C@@H]2OC[C@@H]3NC(=O)Nc2ccc(OC)cc2)nn1 [CBK289495] | 106.314 |
| O=C(NCc1cccnc1-n1cccn1)c1c[nH]c(C(=O)N2CCCC2)c1 [CBK298263] | 101.639 |
| COC(=O)c1ccsc1NC(=O)CN1CCN(Cc2ccc3c(c2)OCO3)CC1 [CBK267940] | 101.395 |
| COc1ccc(C(C)NC2CCN(c3ccccn3)CC2)cc1F (stereo not shown) [CBK304146] | 73.3309 |

| SMILES | % of control remaining |
| --- | --- |
| COC(=O)c1ccccc1OC(=O)COc1ccc(Cl)cc1Br [CBK268733] | 82.5038 |
| CCOC(=O)C1(C2CCCCC2)CCN(C(=O)c2cccc(C(F)(F)F)c2)CC1 [CBK136920] | 88.265 |
| O=C(C1CCCN(C2CCN(Cc3ccccc3)CC2)C1)N1CCN(c2ccccc2)CC1 (stereo not shown) [CBK265440G] | 98.3728 |
| O=C(Nc1ccc2nc(-c3ccc(-c4nc5ccc(NC(=O)c6cccs6)cc5[nH]4)cc3)[nH]c2c1)c1cccs1 [CBK261590] | 87.4064 |
| O=C1CCC(=O)N1CCOc1nccnc1OC1CCN(Cc2ccc(C(F)(F)F)cc2)CC1 [CBK084341] | 78.8377 |
| CCOc1ccc(C(=O)Nc2ccc(-c3nc4cc(C)c(C)cc4o3)cc2)cc1[N+](=O)[O-] [CBK262818] | 107.802 |
| COCCSc1nnc(NS(=O)(=O)c2ccc(F)cc2)s1 [CBK144919] | 90.7555 |
| O=C1CN(C(=O)NC(c2ccccc2)c2ccccc2)CCN1 [CBK155853] | 106.011 |
| O=C(CSc1nnc(-c2ccco2)[nH]1)Nc1cccc(Cl)c1 [CBK293990] | 101.23 |
| CCOC(=O)c1c(N)sc(C(=O)Nc2cccc([N+](=O)[O-])c2)c1C [CBK066829] | 128.919 |
| CC(Cn1cnc2ccccc21)C(=O)N1CCCCC1CN(C)C (stereo not shown) [CBK282191] | 93.7507 |
| CS(=O)(=O)Nc1cccc(C(=O)O)c1 [CBK160404] | 81.8973 |
| O=c1[nH]c(=O)c2cc(S(=O)(=O)NC3(c4ccccc4)CCCC3)ccc2[nH]1 [CBK286378] | 99.8765 |
| Cc1ccccc1N1CCC(CNC(=O)CCc2ccnn2C)C1 (stereo not shown) [CBK306543] | 85.9985 |
| Cc1cc(C(=O)NCCn2ccc(C)n2)c2cccc(Cl)c2n1 [CBK282549] | 98.5765 |
| Cc1nn(C)cc1C(=O)N1CCC2(C/C=C/CCOc3ccccc3C(=O)NCCCNC2=O)CC1 [CBK292154] | 83.1734 |
| O=C1Cc2c(ccc3ccccc23)C2(CCN(CC3CCCCO3)CC2)N1 (stereo not shown) [CBK039395] | 89.8266 |
| N/C(=N\C(=O)CN1C(=O)C2CCCCC2C1=O)Nc1nc2ccccc2s1 (stereo not shown) [CBK263877] | 85.7782 |
| O=C(c1ccccc1)c1nnsc1-c1ccccc1 [CBK008193] | 43.0971 |
| C#CCNC(=O)c1nn(Cc2ccc(S(=O)(=O)N(C)OC)cc2)c2ccccc12 [CBK047985] | 90.4174 |
| COc1ccccc1C1OC(=O)CC1C(=O)N1CCN(c2ccc(C(F)(F)F)cc2)CC1 (stereo not shown) [CBK091313] | 109.169 |
| Cn1c(CNc2ccc(C(=O)O)cc2)nc2ccccc21 [CBK262501] | 101.286 |
| O=C1COc2ccccc2C/C=C/C[C@H]2CN(C(=O)c3noc4c3CCCC4)CC[C@H]2N1 [CBK292099] | 103.757 |
| Cc1nc2ccccc2c(C)c1CC(=O)N(C)Cc1cnn(C)c1 [CBK304895] | 87.2522 |
| CC(=O)N1CCC2(CCCC[C@H]3CN(Cc4coc(C)n4)CC[C@@H]3NC(=O)CNC2=O)CC1 [CBK292165] | 103.812 |
| COC(=O)c1cccc2c1ncc1c(=O)nc(N)sc12 [CBK291214] | 96.9475 |
| NS(=O)(=O)c1ccc(NC(=O)CSc2ccc3ccccc3c2)cc1 [CBK268203] | 88.2618 |

| SMILES | % of control remaining |
| --- | --- |
| O=P(O)(CN1CCCCCC1)CN1CCCCCC1 [CBK262311] | 89.878 |
| O=S(=O)(c1ccccc1)c1nc(-c2ccco2)oc1NCc1cccnc1 [CBK287610] | 80.5198 |
| CCc1cc(O)n2nc(C)c(-c3cccs3)c2n1 [CBK283730] | 94.5011 |
| O=[N+]([O-])c1ccccc1CN1CCN(Cc2cccc(Oc3ccccc3)c2)CC1 [CBK264307] | 100.001 |
| O=C(CC1c2ccccc2Oc2ccccc21)Nc1ccc(Cc2ccncc2)cc1 [CBK263271] | 59.4401 |
| CC(C)c1ccc(S(=O)(=O)Nc2cc(F)c(F)c(F)c2)cc1 [CBK045028] | 57.3966 |
| O=C1CSC2(CCCCC2)N1Nc1ccccc1 [CBK020047] | 104.148 |
| O=C(Nc1ccccc1)NC1CC2CCC(C1)N2Cc1nnnn1Cc1ccco1 (stereo not shown) [CBK085071] | 101.805 |
| C[C@]12CN(C(=O)C3CC3)C[C@H]1NC(=O)c1ccccc1C2=O [CBK281660] | 104.928 |
| COc1ccc(CC(=O)N2CCC(c3cccc(Cc4ccccc4C)n3)CC2)cc1 [CBK286232] | 86.8493 |
| NNC(=O)Nc1ccc(Cc2ccc(NC(=O)NN)cc2)cc1 [CBK262017] | 110.66 |
| COc1ccc([C@H]2CN(C(C)=O)[C@@H]3CCN(CC4CC4)C[C@H]23)cc1 [CBK285502] | 83.4223 |
| CC(Sc1ccccc1)C(=O)NCCN1CCOCC1 (stereo not shown) [CBK269332] | 104.706 |
| Cc1noc(C)c1S(=O)(=O)NCc1cc(C)n(C)n1 [CBK062155] | 82.058 |
| CC(=O)Nc1ccc(S(=O)(=O)Nc2ccc(C(=O)N3CCOCC3)cc2)cc1 [CBK034564] | 58.3487 |
| COCC(=O)N1CC[C@H](c2nnc(-c3ccc(C)cc3)o2)C1 [CBK289410] | 76.4404 |
| CC(C)(C)OC(=O)N1CCN(c2ccnc(Cl)n2)CC1 [CBK002095] | 114.454 |
| COC(=O)NC(NC(=O)OC)C(=O)c1ccccc1 [CBK020208] | 75.6289 |
| COc1ncccc1-c1cccnc1-n1ccnc1 [CBK176872] | 90.0373 |
| CCc1c(C)nc2c(C(=O)NCCOC)cnn2c1C [CBK162143] | 92.9964 |
| CCOc1ccc(-c2cncc(N[C@@H](C)c3ccccc3)n2)cc1 [CBK065720] | 101.645 |
| Cc1c(C(=O)NC2CCCN(c3ncccn3)C2)cnn1C(C)(C)C (stereo not shown) [CBK305652] | 89.0533 |
| Cc1c(C(=O)Nc2sc3c(c2C(=O)NCc2cccnc2)CCC3)oc2ccccc12 [CBK269491] | 122.101 |
| CN(C)CCN(C)c1cccc(/C=C/c2ccccc2)n1 [CBK036826] | 125.405 |
| CC(=O)Nc1cccc(C(=O)OCC(=O)N2CCC(C)CC2)c1 [CBK305905] | 104.363 |
